From article PMC5700166
Only a part is listed here, and it is no random draw. The list includes weakly bound sequences.

Legend:
Experiment in all cases: protein-binding microarray (PBM)
Conditions in all cases: PBM: ~300 nM protein, 6 mM HEPES pH 7.8, 80 mM KCl, 0.5 mM EDTA, 0.5 mM EGTA, 6% glycerol, 35 ng/ul poly-dIdC, 1% milk, 1 h, room temperature; Ap Aiptasia and Nv Nematostella (sea anemones) / Co Capsaspora / Aq Amphimedon (sponge) / Dm Drosophila / Hu human; RHD is the Rel homology domain; high values mean tight binding; most listed sequences are background and not binding sites; double strand, one strand shown
GST-Ap-NF-kB RHD = molecular target: T1, GST-Ap-NF-kB RHD (UniProt A0A913YAJ5)
T1 sequence: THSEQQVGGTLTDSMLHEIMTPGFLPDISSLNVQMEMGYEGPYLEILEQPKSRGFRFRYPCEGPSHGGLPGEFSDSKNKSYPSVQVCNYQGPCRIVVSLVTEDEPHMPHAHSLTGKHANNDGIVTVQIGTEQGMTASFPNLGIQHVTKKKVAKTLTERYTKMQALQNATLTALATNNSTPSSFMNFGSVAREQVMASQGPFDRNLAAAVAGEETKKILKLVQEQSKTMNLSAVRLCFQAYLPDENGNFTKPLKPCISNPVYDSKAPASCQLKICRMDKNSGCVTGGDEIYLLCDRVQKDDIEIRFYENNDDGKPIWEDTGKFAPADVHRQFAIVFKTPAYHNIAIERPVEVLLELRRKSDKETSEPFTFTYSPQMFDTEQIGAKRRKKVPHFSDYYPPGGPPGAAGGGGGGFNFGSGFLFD

[1] = molecular target: T2, GST-Nv-NF-kB (Cys allele) (UniProt E5G601)
T2 sequence: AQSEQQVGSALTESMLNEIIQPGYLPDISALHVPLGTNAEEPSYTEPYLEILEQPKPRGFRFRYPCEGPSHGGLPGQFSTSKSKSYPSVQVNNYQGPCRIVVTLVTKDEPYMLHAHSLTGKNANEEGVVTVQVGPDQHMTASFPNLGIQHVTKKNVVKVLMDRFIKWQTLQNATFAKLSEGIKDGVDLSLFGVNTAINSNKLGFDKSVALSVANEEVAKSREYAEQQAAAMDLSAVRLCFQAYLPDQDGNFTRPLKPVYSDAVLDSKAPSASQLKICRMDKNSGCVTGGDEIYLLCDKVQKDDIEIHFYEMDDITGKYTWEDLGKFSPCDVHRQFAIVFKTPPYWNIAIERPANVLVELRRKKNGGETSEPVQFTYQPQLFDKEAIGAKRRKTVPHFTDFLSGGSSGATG

GST-Co-NF-kB = molecular target: T3, GST-Co-NF-kB (UniProt F1ARL5)
T3 sequence: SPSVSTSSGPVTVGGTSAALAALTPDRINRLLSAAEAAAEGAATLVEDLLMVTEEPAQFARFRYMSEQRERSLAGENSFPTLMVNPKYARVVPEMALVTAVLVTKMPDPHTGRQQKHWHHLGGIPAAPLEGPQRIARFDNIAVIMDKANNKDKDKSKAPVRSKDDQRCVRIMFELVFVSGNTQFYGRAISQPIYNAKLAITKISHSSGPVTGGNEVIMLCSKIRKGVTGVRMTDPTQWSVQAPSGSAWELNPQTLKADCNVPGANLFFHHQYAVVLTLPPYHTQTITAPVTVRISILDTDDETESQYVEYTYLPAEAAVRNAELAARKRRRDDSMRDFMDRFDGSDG

GST-Dm-Relish = molecular target: T4, GST-Dm-Relish (UniProt Q94527)
T4 sequence: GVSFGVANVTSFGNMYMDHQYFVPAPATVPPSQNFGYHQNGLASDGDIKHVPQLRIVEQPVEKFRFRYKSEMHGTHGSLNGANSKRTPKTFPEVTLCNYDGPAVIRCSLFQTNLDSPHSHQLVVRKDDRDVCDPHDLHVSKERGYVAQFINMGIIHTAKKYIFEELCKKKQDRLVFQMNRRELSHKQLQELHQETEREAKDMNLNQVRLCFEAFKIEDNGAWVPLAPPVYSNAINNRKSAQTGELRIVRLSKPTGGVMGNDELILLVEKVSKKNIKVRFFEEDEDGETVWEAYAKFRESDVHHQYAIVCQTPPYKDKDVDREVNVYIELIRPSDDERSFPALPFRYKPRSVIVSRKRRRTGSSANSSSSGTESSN

GST-Aq-NF-kB = molecular target: T5, GST-Aq-NF-kB (UniProt A9Y5G7)
T5 sequence: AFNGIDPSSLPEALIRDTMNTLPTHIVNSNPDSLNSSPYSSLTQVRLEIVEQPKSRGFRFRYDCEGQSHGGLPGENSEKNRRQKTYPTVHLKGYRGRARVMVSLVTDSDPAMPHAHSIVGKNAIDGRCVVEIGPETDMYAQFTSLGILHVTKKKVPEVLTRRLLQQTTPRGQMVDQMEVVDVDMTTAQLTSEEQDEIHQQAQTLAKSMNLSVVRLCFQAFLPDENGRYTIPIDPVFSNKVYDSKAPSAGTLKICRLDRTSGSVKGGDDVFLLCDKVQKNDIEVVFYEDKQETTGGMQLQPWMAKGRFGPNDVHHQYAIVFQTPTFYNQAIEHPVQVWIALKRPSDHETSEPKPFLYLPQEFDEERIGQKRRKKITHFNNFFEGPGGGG

| Sequence | binding signal (GST-Ap-NF-kB RHD) | binding signal [1] | binding signal (GST-Co-NF-kB) | binding signal (GST-Dm-Relish) | binding signal (GST-Aq-NF-kB) |
| --- | --- | --- | --- | --- | --- |
| CCGATTAACATCAGGAATTCACATGATGTTAATCGGGTCTTGATTCGCTTGACGCTGCTG | 0.259 z-score | 0.217 z-score | 0.597 z-score | 5.7 z-score | 0.66 z-score |
| CCGATTAACATCACGGAAACTACTGATGTTAATCGGGTCTTGATTCGCTTGACGCTGCTG | 0.219 z-score | 0.805 z-score | 0.887 z-score | 1.84 z-score | 1.46 z-score |
| CCGATTAACATCACAGACCCGACTGATGTTAATCGGGTCTTGATTCGCTTGACGCTGCTG | 0.0401 z-score | 0.216 z-score | -0.48 z-score | -0.12 z-score | 0.053 z-score |
| CCGATTAACATCAACTCCTTGGCTGATGTTAATCGGGTCTTGATTCGCTTGACGCTGCTG | -0.0472 z-score | 0.414 z-score | -0.239 z-score | -0.782 z-score | -0.54 z-score |
| CCGATTAACATCACGGATTCTCCTGATGTTAATCGGGTCTTGATTCGCTTGACGCTGCTG | -0.126 z-score | -0.15 z-score | -0.745 z-score | -0.248 z-score | 0.947 z-score |
| CCGATTAACATCAATATTCTCTCTGATGTTAATCGGGTCTTGATTCGCTTGACGCTGCTG | -0.122 z-score | 0.037 z-score | -0.351 z-score | 0.00359 z-score | -0.38 z-score |
| CCGATTAACATCAATTCAGAAAGTGATGTTAATCGGGTCTTGATTCGCTTGACGCTGCTG | -0.272 z-score | -0.0297 z-score | -0.261 z-score | -0.147 z-score | -0.53 z-score |
| CCGATTAACATCAGACTAGCCCATGATGTTAATCGGGTCTTGATTCGCTTGACGCTGCTG | 0.00459 z-score | -1.04 z-score | -0.0773 z-score | -0.747 z-score | -0.0607 z-score |
| CCGATTAACATCAGATATAGTACTGATGTTAATCGGGTCTTGATTCGCTTGACGCTGCTG | -0.674 z-score | -0.683 z-score | -0.386 z-score | -0.336 z-score | -0.547 z-score |
| CCGATTAACATCACAAGATTTCCTGATGTTAATCGGGTCTTGATTCGCTTGACGCTGCTG | 0.104 z-score | -0.0553 z-score | 0.624 z-score | 0.745 z-score | 0.442 z-score |
| CCGATTAACATCAACCGGAGCAATGATGTTAATCGGGTCTTGATTCGCTTGACGCTGCTG | -0.676 z-score | -0.903 z-score | -0.183 z-score | -0.511 z-score | -0.166 z-score |
| CCGATTAACATCAAGTTGTACAATGATGTTAATCGGGTCTTGATTCGCTTGACGCTGCTG | -0.665 z-score | -0.231 z-score | -0.652 z-score | -0.36 z-score | -0.257 z-score |
| CCGATTAACATCACACGTAAAGCTGATGTTAATCGGGTCTTGATTCGCTTGACGCTGCTG | -0.544 z-score | -0.859 z-score | 0.244 z-score | 0.713 z-score | -0.378 z-score |
| CCGATTAACATCAGTGCATCTCGTGATGTTAATCGGGTCTTGATTCGCTTGACGCTGCTG | -0.608 z-score | -0.396 z-score | -0.671 z-score | -0.318 z-score | -0.601 z-score |
| CCGATTAACATCATCAGGTGCCTTGATGTTAATCGGGTCTTGATTCGCTTGACGCTGCTG | 0.136 z-score | 0.0686 z-score | -0.692 z-score | -0.252 z-score | 0.13 z-score |
| CCGATTAACATCAGAACGGTTAATGATGTTAATCGGGTCTTGATTCGCTTGACGCTGCTG | 0.301 z-score | 0.121 z-score | 0.446 z-score | -0.456 z-score | -0.143 z-score |
| CCGATTAACATCATTAGGTTTATTGATGTTAATCGGGTCTTGATTCGCTTGACGCTGCTG | -0.453 z-score | -0.419 z-score | -0.226 z-score | -0.222 z-score | -0.263 z-score |
| CCGATTAACATCATGACTTAGAATGATGTTAATCGGGTCTTGATTCGCTTGACGCTGCTG | -0.749 z-score | -0.218 z-score | -0.227 z-score | -0.665 z-score | -0.493 z-score |
| CCGATTAACATCAACTATCCCGCTGATGTTAATCGGGTCTTGATTCGCTTGACGCTGCTG | 0.26 z-score | 0.788 z-score | 1.37 z-score | -0.253 z-score | 1.07 z-score |
| CCGATTAACATCAATGATAACAATGATGTTAATCGGGTCTTGATTCGCTTGACGCTGCTG | -1.48 z-score | -0.17 z-score | -0.37 z-score | -0.254 z-score | -0.114 z-score |
| CCGATTAACATCATCCGTCAAATTGATGTTAATCGGGTCTTGATTCGCTTGACGCTGCTG | 0.173 z-score | 0.3 z-score | -0.248 z-score | -0.55 z-score | -0.523 z-score |
| CCGATTAACATCAGCCCTAGATTTGATGTTAATCGGGTCTTGATTCGCTTGACGCTGCTG | 0.444 z-score | -0.363 z-score | -0.204 z-score | -0.534 z-score | -0.391 z-score |
| CCGATTAACATCAGCCGCCTACCTGATGTTAATCGGGTCTTGATTCGCTTGACGCTGCTG | 0.47 z-score | -0.347 z-score | -0.662 z-score | -0.616 z-score | -0.39 z-score |
| CCGATTAACATCAGTATGCCAACTGATGTTAATCGGGTCTTGATTCGCTTGACGCTGCTG | -0.881 z-score | -0.129 z-score | -0.00177 z-score | -0.325 z-score | -0.52 z-score |
| CCGATTAACATCAAAACGAAATGTGATGTTAATCGGGTCTTGATTCGCTTGACGCTGCTG | -0.588 z-score | -0.11 z-score | 0.346 z-score | 0.405 z-score | -0.329 z-score |
